From ChEMBL document CHEMBL1201862, “PubChem BioAssay data set” (2004) come the findings set out here.

Where “and” joins values, the source holds several entries; their conditions need not be identical. Equal entries are not always repeated.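 Five concentrations, 48 hours, 96-well plates. Abbreviation: GI50, concentration required for 50% inhibition of growth.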 Calls of active or inactive are those of the source. Rule as the data show it: active = GI50 up to about 1.1 µM and inactive = higher.

The test system of the assay is NCI-H322M. The assay is described as follows: NCI tumour cell line growth inhibition, 48 h.
`COc1ccc(CCc2cc(OC)c(O)c(OC)c2)cc1`: the GI50 was inactive: > 100 µM.

Take `O=C(CC1(O)CCCCC1)OC1CCCC1`: the GI50 is inactive: > 100 µM.

As to `CCOc1cc2c(cc1O)/C(=N\N)C[C@@H]1[C@@H]2CC[C@]2(C)[C@@H](O)CC[C@@H]12`, the GI50 was inactive: 13.3 µM.

Regarding `CC[N+]1(C)CCC(O)(/C=C/c2ccccc2)C(C(=O)/C=C/c2ccccc2)C1` (centres undefined), the GI50 was inactive: 18.5 µM.

On to `CCN(CC)CC(O)CNc1ccc(NCC2CO2)c2c1C(=O)c1ccccc1C2=O` (centres undefined), for which the GI50 is inactive: 1.56 µM.

For the molecule `O=C(O)C(Cc1ccc(O)c([N+](=O)[O-])c1)N1C(=O)c2ccccc2C1=O` (centres undefined), the GI50 is inactive: > 100 µM.

Turning to `Nc1cc2c(c3ccccc13)C(CCl)CN2C(=O)c1cc2cc(NC(=O)Nc3ccc4[nH]c(C(=O)N5CC(CCl)c6c5cc(N)c5ccccc65)cc4c3)ccc2[nH]1` (centres undefined), the GI50 is inactive: 1.42 µM.

In the case of `C=CCNC(=O)N(CCCCC(NC(C)=O)C(=O)NCc1ccccc1)Cc1ccccc1` (centres undefined), the GI50 was inactive: > 100 µM.

On to `N#Cc1c(CC(=O)O)cc(=O)n2c1[nH]c1ccccc12`, for which the GI50 was inactive: > 100 µM.

Regarding `O=P(CN1CCOCC1)(c1ccccc1)c1ccccc1`, the GI50 was inactive: > 100 µM.

Turning to `CSc1cc(Cl)c(C)cc1S(=O)(=O)NC(=O)NNc1cccc(C(F)(F)F)n1`, the GI50 is inactive: > 100 µM.

For the molecule `CC(=O)Oc1c(OC(C)=O)c(-c2ccc(O)c(O)c2)c(O)c(O)c1-c1ccc(O)cc1`, the GI50 was inactive: > 100 µM.

For the molecule `C/C(=C\CBr)CCC(Br)C(C)(C)Cl` (centres undefined), the GI50 is inactive: > 100 µM.

As for `[O-]c1c2cc(-[n+]3c(-c4ccccc4)cc(-c4ccccc4)cc3-c3ccccc3)cc1CO[C@@H](c1ccccc1)[C@H](c1ccccc1)OCc1cccc(n1)CO[C@@H](c1ccccc1)[C@H](c1ccccc1)OC2`, the GI50 is active: 0.352 µM.

Consider `COC(=O)c1c(CC#N)cccc1CC#N`, for which the GI50 is inactive: > 100 µM.

With `Cc1cc2cccc(Cl)c2nc1C(=O)c1ccccc1`, the GI50 was inactive: > 100 µM.

Consider `C=CCN1C(=O)/C(=C/c2ccccc2)N=C1SC1OC(COC(=O)c2ccccc2)C(OC(=O)c2ccccc2)C1OC(=O)c1ccccc1` (centres undefined), for which the GI50 is inactive: > 100 µM.

With `COC(=O)c1ccc(-c2nc(C#N)c(N)o2)cc1`, the GI50 is inactive: > 100 µM.

On to `c1ccc(/N=C(\N2CCCC2)N(CCN2CCCC2)c2ccccc2)cc1`, for which the GI50 was inactive: 24.9 µM.

Consider `COC(=O)c1ccccc1C#CC#Cc1ccccc1C(=O)OC`, for which the GI50 is inactive: > 10 µM.

Regarding `CCn1c(=O)nc2n(-c3ccc(SC)cc3)c3ccccc3nc-2c1=O`, the GI50 was inactive: > 100 µM.

With `COC(=O)C1=C(O)C(C(=O)OC)[C@@]2(O)[C@@H](C(=O)OC)CC[C@@H]1[C@@H]2C(=O)OC` (some centres undefined), the GI50 was inactive: 32.9 µM.

Take `CCCNC(=O)C(C)C1CCC2(C)C=CC(=O)C(C)=C2C1O` (centres undefined): the GI50 is inactive: > 100 µM.

On to `Cc1ccc(S(=O)(=O)N2CCCSCCSCCCSCC2)cc1`, for which the GI50 is inactive: > 100 µM.

Consider `CC(=O)CC(O)(C(F)(F)Cl)C(F)(F)Cl`, for which the GI50 is inactive: > 10 µM.

Turning to `C=CCc1cccc2cc(C(=O)NC3CCCCC3)c(=N)oc12`, the GI50 is inactive: 14.2 µM.

For the molecule `CCOP(C)(=O)C(Cc1c[nH]c2ccccc12)C(=O)O` (centres undefined), the GI50 is inactive: > 100 µM.

For `CCOC(=O)C(=O)Nc1c(N(CC)CC)n2ccccc2nc1=O`, the GI50 was inactive: > 100 µM.

Consider `Cc1ccc(O)c(C2=CC(c3cccc(Cl)c3)SC(=N)N2)c1` (centres undefined), for which the GI50 was inactive: 36.7 µM.

For the molecule `CCCCCOc1ccc(/C=N\c2ccc(CCc3ccc(/N=C/c4ccc(OCCCCC)cc4)cc3)cc2)cc1`, the GI50 was inactive: > 100 µM.

Take `CC(C)(C)OP(=O)(OC(C)(C)C)C(O)c1ccc(/C=C(\C#N)C(N)=O)cc1` (centres undefined): the GI50 was inactive: > 100 µM.

On to `N=C(N)C1=C(O)NC(=O)N(C2CCCCC2)C1`, for which the GI50 is inactive: > 100 µM.

Turning to `CC(C)C1C(=O)N2CCCC2C2(O)OC(NC(=O)C3C=C4c5cccc6[nH]cc(c56)CC4N(C)C3)(C(C)C)C(=O)N12` (centres undefined), the GI50 is inactive: 27.9 µM.

Consider `O=C(Nc1ccccc1)N(CCCCN(Cc1ccccc1)C(=O)Nc1ccccc1)Cc1ccccc1`, for which the GI50 was inactive: > 100 µM.

For the molecule `CCCCCCCCCCCCCC(=O)OCC1OC(n2cc(F)c(=O)[nH]c2=O)C(N)C(OC(=O)CCCCCCCCCCCCC)C1O` (centres undefined), the GI50 is inactive: > 100 µM.

As to `CC(C)(CO)CNc1cc(=O)[nH]c(N)n1`, the GI50 is inactive: > 100 µM.

Take `Cc1cc(=O)oc2c(CN(CCCl)CCCl)c(O)ccc12`: the GI50 was inactive: 56.4 µM.

As to `O=C(Nc1ccc(S(=O)(=O)Nc2ncccn2)cc1)c1c2ccccc2nc2ccccc12`, the GI50 is inactive: > 100 µM.

Regarding `O=C(CSc1nnc(Cc2ccccc2)o1)Nc1cccc([N+](=O)[O-])c1`, the GI50 is inactive: > 100 µM.

On to `Cc1ccc2nc3c(C(=O)NCCN(C)C)cccc3cc2c1`, for which the GI50 is inactive: 2.18 µM.

Consider `CC(C)c1cc(C(C)C)c(S(=O)(=O)N/N=C2\CC3CCC2(C)C3(C)C)c(C(C)C)c1` (centres undefined), for which the GI50 is inactive: 32.5 µM.

In the case of `COc1ccc2c(c1)CCC(CN1CCN(CCOC(c3ccc(F)cc3)c3ccc(F)cc3)CC1)=C2`, the GI50 was inactive: 27.7 µM.

Take `CN1CC=C(C#CC(C)(C)O)CC1`: the GI50 was inactive: > 37.5 µM.

As to `C=CC[C@H]1C[C@@]2(C)OC[C@H](C(C)C)N2C1=O`, the GI50 is inactive: > 100 µM.

On to `COc1ccc2c(c1)CC[C@@H]1C2CC[C@]2(C)C(=O)N(CCN(C)C)C(=O)CC12` (some centres undefined), for which the GI50 is inactive: > 100 µM.

On to `N=C(N)NS(=O)(=O)c1ccc(Nc2c3ccccc3nc3c(C(=O)NC(CO)(CO)CO)cccc23)cc1`, for which the GI50 is inactive: 29.7 µM.

Regarding `CCc1nnc(CC)n1N1C(=O)CCC1=O`, the GI50 was inactive: > 100 µM.

With `CCCC1C(CC)C(NC)C(C#N)(C#N)C1(C#N)C#N` (centres undefined), the GI50 was inactive: 18.8 µM.

In the case of `COc1cccc(C[C@H]2COC(=O)[C@]2(O)Cc2cccc(OC)c2)c1`, the GI50 was inactive: > 100 µM.

As for `O=C(NCCCCCCCCCCCCNC(=O)c1cnc2ccccc2n1)c1cnc2ccccc2n1`, the GI50 was inactive: 40.9 µM.

In the case of `C=C(C)C1CC/C(C)=C/CC[C@]2(C)O[C@H]2CC/C(COC(C)=O)=C\[C@@H]1O` (some centres undefined), the GI50 is inactive: 18 µM.

Take `O=C(c1ccc(Cl)cc1Cl)C1[C@H]2C(=O)N(c3ccc(Cc4ccc(N5C(=O)[C@@H]6ON(c7ccccc7)C(C(=O)c7ccc(Cl)cc7Cl)[C@@H]6C5=O)cc4)cc3)C(=O)[C@H]2ON1c1ccccc1` (some centres undefined): the GI50 was inactive: > 50 µM.

As to `C=C(Cl)C(C)(Cl)CCC(Br)C(C)(C)Cl` (centres undefined), the GI50 is inactive: 34 µM.

Take `COC(=O)[C@H](C)NC(=O)[C@H](CSC)N1C(=O)N[C@@H](C(C)C)C1=O`: the GI50 is inactive: > 100 µM.

Turning to `O=C(Cn1nnc(-c2ccccc2)n1)N/N=C/c1cn(Cc2ccc(Cl)cc2Cl)c2ccccc12`, the GI50 was inactive: > 100 µM.

Regarding `CCN(CC)CC1c2ccccc2C(CNc2ccccc2)N1C` (centres undefined), the GI50 was inactive: > 100 µM.

Turning to `O=C(CSc1nc2ccccc2s1)c1sc2sc3ccccc3[n+]2c1[O-]`, the GI50 is inactive: > 100 µM.

As to `COc1ccc(/C=C\c2cc(OC)c(OC)c(OC)c2)cc1OC(=O)C(N)CCC(=O)O` (centres undefined), the GI50 is active: 0.000473 µM.

As for `Cc1cn(C2CC(N=[N+]=[N-])C(CO[Si](C)(C)C(C)(C)C)O2)c(=O)[nH]c1=O` (centres undefined), the GI50 was inactive: 17.3 µM.

In the case of `CN1C/C(=C\c2ccco2)c2nc(N)nc(-c3ccco3)c2C1`, the GI50 is inactive: > 100 µM.

In the case of `c1ccc(C[P+]2(c3ccccc3)c3ccccc3-c3ccccc32)cc1`, the GI50 is inactive: > 100 µM.

Turning to `O=c1oc2cc(O)ccc2c(O)c1C(c1ccccc1F)c1c(O)c2ccc(O)cc2oc1=O`, the GI50 is inactive: > 100 µM.

As for `CSc1nc2c(c(=O)n1C)N=C(c1ccccc1)[C@H](C(CC(=O)c1ccccc1)c1ccccc1)C(c1ccccc1)N2` (some centres undefined), the GI50 is inactive: > 100 µM.

Turning to `Cc1ccc(NC(=O)C2C(=O)N(c3ccc(C)c(C)c3)C(=O)/C2=N/O)cc1C` (centres undefined), the GI50 is inactive: > 100 µM.

Regarding `COC(=O)[C@]1(C)CCC[C@]2(C)[C@H]3CC[C@]4(C(C)C)OO[C@@H](O4)[C@]34O[C@@H]4C[C@H]21`, the GI50 was inactive: 14.6 µM.

In the case of `CC1(C)N=C(N)N=C(N)N1c1ccc(CCCCc2ccc(S(=O)(=O)F)cc2Cl)c(Cl)c1`, the GI50 is inactive: 10.8 µM.

For `COC(=O)CCc1c(Cc2ccc[nH]2)[nH]c(C(=O)OCc2ccccc2)c1C`, the GI50 was inactive: > 100 µM.

`NC(=O)C(N)=O`: the GI50 was inactive: > 100 µM.

As to `NC(Cc1cccc([N+](=O)[O-])c1)C(=O)O` (centres undefined), the GI50 is inactive: > 100 µM.

As to `COC(OC)C1OC(CO)C(n2cc(C)c(=O)[nH]c2=O)C1O` (centres undefined), the GI50 is inactive: > 100 µM.

Consider `O=C(CNc1ccc([N+](=O)[O-])cc1)Nn1c(-c2ccccc2)nc2ccccc2c1=O`, for which the GI50 was inactive: 15.6 µM.

Consider `COC(OC)(c1ccccc1)C(I)I`, for which the GI50 is inactive: 29 µM.

In the case of `C/C=C(\C)C(=O)N1c2ccccc2CC1c1c(C)[nH]c2ccccc12` (centres undefined), the GI50 is inactive: 66.2 µM.

Take `CC1OC(OC23C(=O)CC(C)(O)CC2(O)C=CC2=C3C(=O)c3ccc(C4CC(OC5CCC(OC6CC(O)C(O)C(C)O6)C(C)O5)C(O)C(C)O4)c(O)c3C2=O)CCC1O` (centres undefined): the GI50 is inactive: 26.6 µM and inactive: 27.5 µM.

In the case of `O=c1c(Cc2c(O)oc3cc(O)ccc3c2=O)c(O)oc2cc(O)ccc12`, the GI50 is inactive: > 100 µM.

Consider `O=C(Cc1nc2ccccc2c(=O)n1-c1ccccc1Cl)c1ccncc1`, for which the GI50 was inactive: > 100 µM.

For `COc1ccc(CCc2cc(OC)cc(OC)c2)cc1`, the GI50 was inactive: 69.2 µM.

For `COc1ccc2nc3ccccc3c(NCCCCCN(CCCl)CCCl)c2c1`, the GI50 is active: 0.106 µM.

In the case of `O=C(C#Cc1cnc(O)nc1O)c1ccccc1Cl`, the GI50 was inactive: 58.5 µM.
